The campaign covered roughly 4,800 compounds. About 420 (8.8%) showed an effect of 50% or more. The list shows a part of the results.

The test system of this experiment is Plasmodium falciparum. Nature of the experiment: Confirmatory screen in NF54 nanoGlo assay, in single point, at 2uM, 72h. It counts as functional, Erythrocyte. Particulars: timepoint 72 hour.
On to `O=C(c1cccc(C(F)(F)F)c1)c1c[nH]c(C(=O)NCc2cccnc2)c1`, for which the “% Inhibition” value is recorded as -23%.

Take `CCCn1nnc(N(C(=O)c2cc(Br)cc(C)c2OC)C(=O)c2cc(Br)cc(C)c2OC)n1`: the “% Inhibition” value was -6%. Next, `COc1ccccc1CNC(=O)c1cnn2c3c(cnc12)CCCC3`: -12%; `CC[C@H](C)n1ncc(C(=O)N2CCNCC2)c1C1CC1`: -16%; `CC(C)c1nnc(Cn2nnc(-c3ccncn3)n2)s1`: -12%.

In the case of `Cc1cc2n(n1)C(C(F)(F)F)CCN2C(=O)C(C)N1C(=O)C2CCCCC2C1=O` (stereo not drawn), the “% Inhibition” value is listed as 1%. Next, `Cc1onc(N)c1S(=O)(=O)Nc1ccncc1`: -7%; `O=C(Nc1ccncc1)c1nc(N2CCCC2)ncc1Br`: -5%; `Cc1ccc(NC(=O)[C@H]2CN(S(=O)(=O)C3CC3)CC23CCCCC3)c(C)c1`: 1%. Next, `Cc1csc(NC(=O)[C@]2(C)Oc3ccccc3NC2=O)n1`: 0%. As for `Cn1nc(C2CC2)c2c(C(F)F)cc(C(F)F)nc21`, the “% Inhibition” value is 4%.

Turning to `O=C1COc2ccc(S(=O)(=O)N3CC[C@H]3c3ccccc3)cc2N1`, the “% Inhibition” value is reported as -5%.

As to `Cc1cc(=O)n(CC(=O)Nc2ccc(Cl)c(C(F)(F)F)c2)c(-c2ccc(F)cc2)n1`, the “% Inhibition” value was -6%. For `C[C@@](CO)(NC(=O)Nc1cc(-c2ccco2)ccc1F)C1CC1` the value was -4%; for `C[C@H](C(=O)Nc1ccc(F)cc1Cn1ccsc1=O)C1CC1`, -18%. For `Cn1cc(Br)cc1C(=O)N1CC(O)(C2CC2)C1` the value was -2%. For `O=C(NCCN1CCCC1)c1cc2n(n1)CCN(Cc1cccc(F)c1)C2=O` the value was -9%.

`COc1ccc(-c2cnn3ccc(-c4ccc(-n5ccc(=O)cc5)cc4)nc23)cc1OC`: the “% Inhibition” value turned out to be 5%. Next, `Cc1cc(C)n(-c2c(C)[nH]c3ccccc23)n1`: -7%; `Cc1nn(C)c(C)c1S(=O)(=O)N1CCCN(c2ccc(F)c(F)c2)CC1`: 3%. For `Cc1nnc(CNC(=O)Nc2cccc3c4c(oc23)CCCC4)o1` the value was 46%; for `Cc1cc(F)ccc1-n1nnc(C(=O)O)c1-c1cccnc1`, -2%; for `CC[C@@H](C(=O)NC)n1ccc2cc(S(=O)(=O)N3CCCCC3)ccc21`, -2%.

As for `Cc1ccc(CCNC(=O)c2ccc(-c3nc(CS(=O)(=O)c4ccc(C)cc4)c(C)o3)cc2)cc1`, the “% Inhibition” value was -14%. For `CCNc1nc(C)cc(Nc2ccc(NC(=O)c3cc(C)ccc3C)cc2)n1` the value was 98%; for `Cc1cc(C(=O)Nc2c(F)cccc2OCc2ccccc2)on1`, 19%; for `Fc1ccccc1-c1c2c(nc3ccc(Cl)cc13)CCCCCC2`, -10%.

As to `COc1cccc(-c2noc3nc(C)cc(C(=O)N[C@@H](C)c4ccn(C)n4)c23)c1`, the “% Inhibition” value is listed as -10%.

As usually defined, the % Inhibition is the change of the read-out against control, counted positive when it falls.

(Values after ChEMBL document CHEMBL4888484, “Replenishing the malaria drug discovery pipeline: Screening and hit evaluation of the MMV Hit Generation Library 1 (HGL1) against asexual blood stage Plasmodium falciparum ,using a nano luciferase reporter read-out” (2022).)
